# Results as given in PubChem BioAssay AID1345082 (National Center for Advancing Translational Sciences (NCATS), 2018).
# Among all 94,000 compounds or so, about 4,000 (4.3%) were called active. The inconclusive results got no clear call from the source; some entries with a clear call stand among them for comparison. The call rests on the fitted dose curve; in most records, active means well fitted inhibition curve with a large enough effect; inconclusive means small, poorly fitted or top-dose-only effect; inactive means no such curve, though single readings can be large or run the other way. Where the call is inconclusive, the potency comes from a doubtful curve fit.
# Experiment: Cytotoxic Profiling in NIH 3T3 Cell Line of Diverse Libraries Using Quantitative High-Throughput Screening; further: nearly all actives have a fitted effect of over 55% in size
# Conditions: NIH 3T3 viability, CellTiter-Glo ATP luminescence, 48-72 h; activity change, negative = cytotoxicity: at 96.7 µM (top of the series) unless noted; series mostly up to 96.7 µM
# In short: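 Mouse fibroblast NIH 3T3 cells, 400 per well, received compound via pintool and were incubated for 48 or 72 hr prior to CellTiter-Glo ATP luminescence measurement.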
# On the % scale 0 is the no-effect control and ±100 the full control effect; potency means the concentration at half of the fitted maximal effect; tags describe the fitted curve by direction and shape.
Compound,Potency,"activity change, negative = cytotoxicity",outcome
Cc1nnc([C@H]2CCN(Cc3ccc(F)cc3)C2)o1,"inconclusive: 141 µM [inhibitor, single point]",–,–
CN(C(=O)c1ccc(OC2CCN(C(=O)C3CC3)CC2)cc1)C1CCCc2ccccc21 (configuration not stated),"inconclusive: 50.1 µM [inhibitor, partial curve, poor fit]",–,–
Cn1ncc2c(C(=O)NCC(F)(F)F)cc(-c3cccc(F)c3)nc21,"inconclusive: 50.1 µM [inhibitor, partial curve, poor fit]",–,–
O=C(COc1ccc(F)cc1)N1CCCC(n2cc(-c3nc(C4CC4)no3)nn2)C1 (configuration not stated),"inconclusive: 56.2 µM [inhibitor, partial curve, poor fit]",–,–
Nc1nc(NCc2ccc(Cl)cc2Cl)cc(C2CC(O)C2)n1 (configuration not stated),"inconclusive: 35.5 µM [inhibitor, partial curve, poor fit]",–,–
CCOc1ccccc1C(=O)N1CCC[C@H]1c1nc(-c2ccc(OC)cc2)no1,"inconclusive: 35.5 µM [inhibitor, partial curve, poor fit]",–,–
O=C(NCc1cccc(Cl)c1)c1ccc2nnc(Cc3ccc(Cl)cc3)n2c1,"inconclusive: 44.7 µM [inhibitor, partial curve, poor fit]",–,–
Cc1cc(C)cc(C2(CNC(=O)C3CC4(CCNCC4)CN3)CCCC2)c1 (configuration not stated),"inconclusive: 79.4 µM [inhibitor, partial curve, poor fit]",–,–
COC(=O)[C@@H]1Cc2ncn(Cc3ccc(Cl)cc3)c2CN1C(=O)c1ccc(C#N)cc1,"inconclusive: 79.4 µM [inhibitor, partial curve, poor fit]",–,–
COc1ccc(-c2cn3cc(C(=O)NCCc4ccccc4F)nc3s2)cc1,–,inactive: -22.3%,–
Cc1nc(-c2c3n(c(=O)n(CC(=O)Nc4c(C)cccc4C)c2=O)CCCC3)no1,–,inactive: -10.7%,–
COc1ccc2[nH]c3c(c2c1)CCNC31CCN(C(=O)c2ccoc2)CC1,"inconclusive: 56.2 µM [inhibitor, partial curve, poor fit]",–,–
Cc1ccc(C(=O)N2CCC3(CC2)CC(N(Cc2ccccc2)C2CC2)CCO3)cn1 (configuration not stated),"inconclusive: 44.7 µM [inhibitor, partial curve, poor fit]",–,–
CCN1CCC(CCNC(=O)CCC[C@H]2NC[C@@H]3CC2CN(Cc2ccccc2)C3)CC1,–,–,inactive
COc1cccc(-c2ccc(C(=O)NCCNC(=O)Cc3ccccn3)cc2)c1,–,inactive: -15.5%,–
O=C1NCc2ccccc2CC12CCN(Cc1cccc(C(F)(F)F)c1)C2 (configuration not stated),"inconclusive: 39.8 µM [inhibitor, partial curve, poor fit]",–,–
Cc1ccc2c(n1)N(C)[C@H](CO)CCN(Cc1ccccc1F)C2,–,inactive: -31.3% [at 174 µM],–
